Data from PubChem BioAssay AID1671194 (National Center for Advancing Translational Sciences (NCATS), 2021).
Hit rate of the full screen: of about 140,000 compounds, about 240 (0.17%) were called active. Inconclusive means that the source gave no clear call. Such entries were picked first, then a sample of the others. Calls come from the whole dose curve; as a rule, active = well fitted inhibition curve with a large enough effect; inconclusive = small, poorly fitted or top-dose-only effect; inactive = no such curve, though single readings can be large or run the other way. Potencies beside an inconclusive call are fits to weak or partial responses and may not hold up.

experiment: Primary qHTS assay for inhibitors of alpha-synuclein gene (SNCA) expression; settings: HEK-293 SNCA-luciferase knock-in, luminescence, 24 h; series mostly up to 57.2 µM; note: nearly all actives have a fitted effect of over 45% in size
Potency is the fitted concentration of half-maximal effect; tags give direction and shape of the fitted curve.

Potency, inconclusive:
CCN1C(=O)CN(C(=O)c2cccs2)CC12CCOCC2 3.16 µM [inhibitor, full curve, poor fit]
C=CCN1C[C@H](COCc2ccccc2)Oc2ccncc2[S+]1(=O)[O-] 3.16 µM [inhibitor, single point]
CN(Cc1ccccc1)C(=O)C[C@@H]1CCNC[C@@H]1Cc1cc(CC2CCCCC2)on1 3.16 µM [inhibitor, partial curve, poor fit]
CC(C)CCn1c(=O)c2cccnc2n(CC(=O)Nc2ccc(F)cc2)c1=O 0.178 µM [inhibitor, partial curve, poor fit]
CC(C)NC(=O)Cn1ccn2nc(-c3ccccc3)c(CO)c2c1=O 3.16 µM [inhibitor, partial curve, poor fit]
C#CCn1c(C2CC(=O)N(c3ccc(OC)cc3)C2)nc2ccccc21 (centres undefined) 7.08 µM [inhibitor, single point]
CCc1nc2c(c(-c3ccc(OC)cc3)n1)CCN([S+](=O)([O-])c1ccc(N(C)C)cc1)CC2 10 µM [inhibitor, partial curve, poor fit]
COC[C@]1(O)CCN(C(=O)C2CCN(CC(N)=O)CC2)CC1(C)C 6.31 µM [inhibitor, single point]
COc1ccccc1C(=O)Oc1c(Sc2ccccc2)c(C)nn1C(C)(C)C 11.2 µM [inhibitor, single point]
COc1ccc(NC(=O)c2ccc(-c3nc(CSc4ccc(C)cc4)c(C)o3)cc2)cc1Cl 1.58 µM [inhibitor, partial curve, poor fit]
COc1ccc(CN2CCC3(CC2)NCc2ccccc2NC3=O)cc1 20 µM [inhibitor, single point]
COc1ccc(-c2[nH]c(-c3cccc(OC)c3)nc2SCC(=O)Nc2ccc3c(c2)OCO3)cc1 35.5 µM [inhibitor, single point]
Cc1cccc(-n2ncc(C(=O)N3CCN(C4CCCCC4)CC3)c2C2CCN(C(=O)OC(C)(C)C)CC2)c1 39.8 µM [inhibitor, single point]
CCc1nnc(NC(=O)c2nc(S(=O)(=O)Cc3ccc(C)cc3)ncc2Cl)s1 39.8 µM [inhibitor, single point]
O=C1CCN(C(=O)C2(c3ccccc3)CC2)CCCOCCN1 8.91 µM [inhibitor, partial curve]
COc1ccc(Cl)cc1NC(=O)c1c(OC)cc(=O)n2c1CCCC2 39.8 µM [inhibitor, single point]
O=C1NC(=NC2CCCC2)C2(CCN(CC3CCCCC3)C2)N1c1cc(F)cc(F)c1 (centres undefined) 31.6 µM [inhibitor, partial curve, poor fit]
COc1ccc2[nH]cc(CCNc3ncncc3-c3ccccc3OC)c2c1 39.8 µM [inhibitor, single point]
Cc1cn2cc(CNC(=O)c3ccc(CN4CCCN(C)CC4)[nH]c3=O)nc2s1 14.1 µM [inhibitor, partial curve, poor fit]
Cc1nn2c(c1-c1ccccc1OCc1ccccc1)N(Cc1ccccc1O)CCC2 4.47 µM [inhibitor, full curve, poor fit]
COc1ccc(C(=O)N2CCC[C@@]3(CCN(c4ccccc4)C3)C2)cc1 39.8 µM [inhibitor, single point]
CCCc1noc(-c2cccn3c(CNC(=O)c4ccccc4OCC)nnc23)n1 2.51 µM [inhibitor, partial curve, poor fit]
COc1ccc(C2Cn3nnc(C(=O)N4CCC(C(=O)Nc5cccc(Cl)c5)CC4)c3CO2)cc1 (centres undefined) 14.1 µM [inhibitor, partial curve]
CCOC(=O)c1ccc(N2C(=O)c3[nH]nc(-c4ccc(C)cc4)c3C2c2cccc(F)c2)cc1 (centres undefined) 39.8 µM [inhibitor, single point]
COc1ccccc1N1CCN(c2ncnc3c2cnn3-c2cc(Cl)ccc2C)CC1 1 µM [inhibitor, partial curve, poor fit]
CCc1ccc(C(=O)c2cn(CC(=O)Nc3cccc(OC)c3)c3ccc(OC)cc3c2=O)cc1 14.1 µM [inhibitor, partial curve, poor fit]
O=C(c1ccoc1)N1CCC(n2cc(-c3nc(C4CC4)no3)nn2)C1 (centres undefined) 31.6 µM [inhibitor, single point]
O=C1Nc2ccc(-c3ccccc3F)cc2C(=O)N2CCN(C(=O)COc3ccccc3)C[C@H]12 28.2 µM [inhibitor, single point]
CCOc1ccc(N2CC(NC(=O)C(=O)c3c[nH]c4ccccc34)CC2=O)cc1 (centres undefined) 0.398 µM [inhibitor, full curve]
Cc1cccc(NC(=O)CSc2cn(CC(=O)N3CCCCCC3)c3ccccc23)c1 39.8 µM [inhibitor, single point]

Potency, inactive:
COCCNC(=O)c1ccc2c(c1)C1(CCN(CC3CC3)C1)CN2Cc1ccccc1 (centres undefined)
COc1ccc(OCC(=O)Nc2nnc(S(=O)(=O)N3CCc4ccccc43)s2)cc1
C[S+](=O)([O-])NCc1nnc2n1C(C(=O)NCc1ccccc1F)CC2 (centres undefined)
Cc1nn(-c2ccc(C(C)C)cc2)c(C)c1[C@@H]1C=C[C@@H](NC(=O)COCC(=O)O)C1
COC1C(=O)N(C2CCN(C(=O)c3cnn(C)c3)CC2)C12CCOCC2 (centres undefined)
CCn1nccc1C(=O)N1CCC(CCn2c(C)cnc2C)CC1
Cc1noc(C)c1-c1cnc2[nH]cc(CC(=O)NCc3cccnc3)c2c1
CCc1nc2c(c(-c3ccc(Cl)cc3)n1)CN(C(C)=O)CC2
Cc1csc(NC(=O)c2nc3c(o2)CCN(Cc2cccc(F)c2)CC3)n1
